# Laboratory results reported in PubChem BioAssay AID1745853 (National Center for Advancing Translational Sciences (NCATS), 2022).
# This is one part of the list. Shown are side measurements of this screen, not its main read-out; they come without a call.
# Tests used:
# Assay in all cases: Primary Screen for Target Class Profiling of Small Molecule Inhibitors of Methyltransferases
# [1] = biological target: Glycine N-methyltransferase (Homo sapiens) (UniProt Q14749); conditions: purified enzyme, MTase-Glo SAH luminescence; measured here: GNMT inhibition; at 40 µM; stronger effect = lower value
# Procedure, shortened: (§1)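 Each enzyme was assayed with SAM and its substrate. SAH formation detected by MTase-Glo luminescence; single-point 40 uM screen[…].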
# [2] = biological target: Guanidinoacetate N-methyltransferase (Homo sapiens) (UniProt Q14353); conditions: purified enzyme, MTase-Glo SAH luminescence; measured here: GAMT inhibition; at 40 µM; stronger effect = lower value
# Procedure, shortened: as §1
# [3] = biological target: Histamine N-methyltransferase (Homo sapiens) (UniProt P50135); conditions: purified enzyme, MTase-Glo SAH luminescence; measured here: HNMT inhibition; at 40 µM; stronger effect = lower value
# Procedure, shortened: as §1
# [4] = biological target: Nicotinamide N-methyltransferase (Homo sapiens) (UniProt P40261); conditions: purified enzyme, MTase-Glo SAH luminescence; measured here: NNMT inhibition; at 40 µM; stronger effect = lower value
# Procedure, shortened: as §1
# [5] = biological target: Phenylethanolamine N-methyltransferase (Homo sapiens) (UniProt P11086); conditions: purified enzyme, MTase-Glo SAH luminescence; measured here: PNMT inhibition; at 40 µM; stronger effect = lower value
# Procedure, shortened: as §1
# On the % scale 0 is the no-effect control and ±100 the full control effect.
SMILES,"activity change, negative = inhibition [1]","activity change, negative = inhibition [2]","activity change, negative = inhibition [3]","activity change, negative = inhibition [4]","activity change, negative = inhibition [5]"
COc1cccc(CN2Cc3cc(NC(=O)c4ccc(F)cc4F)ccc3OC(C)C2=O)c1 (stereo not given),-8.52%,-6.68%,-7.55%,-10.5%,-13.3%
O=S1(=O)NCC2(CCN(Cc3ccc(Cl)s3)CC2)Oc2ncccc21,-5.2%,-4.62%,-1.51%,-7.79%,-0.957%
C=C1C(=O)O[C@@H]2C3C(=C(C)[C@@H](O)[C@@H](OC(=O)/C(=C/C)COC(C)=O)[C@@H]12)C(=O)[C@H]1O[C@@]31C (stereo not given in full),-5.27%,-7.87%,5.04%,-11%,-8.64%
CCCn1c(=O)c2ccccc2n2c(SCC(=O)Nc3cc(Cl)ccc3OC)nnc12,5.04%,0%,11.3%,2.5%,7.25%
CCC(C)NC(=O)c1ccc2c(=O)n(CC(C)C)c3nn(Cc4ccc(Cl)cc4)c(=O)n3c2c1 (stereo not given),0.497%,2.16%,3.79%,-0.762%,1.58%
CCC1CCCCN1CCCNC(=O)Cn1ccc2cc(S(=O)(=O)N3CCCCC3)ccc21 (stereo not given),-1.66%,2.15%,-43.9%,-4.21%,-0.744%
CCc1ccc(CNC(=O)C(C)n2ccc3cc(S(=O)(=O)N4CCCCC4)ccc32)cc1 (stereo not given),2.07%,4.87%,1.78%,1.7%,0.779%
Cc1noc([C@@H]2CN(C(=O)c3cc(C4CC4)[nH]n3)C[C@H]2C(N)=O)n1,-3.6%,-5.75%,-1.95%,-3.81%,-1.8%
CCCN1C(=O)c2c(C(=O)NCCc3ccc(C)cc3)ncn2CC1(C)C(=O)NCCC(C)C (stereo not given),2.45%,0.801%,1.85%,0.32%,5.73%
CCC1(C)CC(CC(=O)O)(c2ccc(OC)cc2)CCO1 (stereo not given),3.15%,1.07%,7.34%,9.89%,2.12%
CC(C)=C1CC2C(CCC2(C)O)C(C)(O)CC1=O (stereo not given),0.717%,-2.44%,8.22%,-13.2%,5.73%
COCCNC(=O)c1nc(-c2ccsc2)c2ccccn12,-12.8%,-7.62%,-3.2%,-7.52%,-5.86%
CC(=O)Oc1ccc(C2(c3ccc(OC(C)=O)cc3)Oc3ccccc3NC2=O)cc1,0.644%,8.98%,6.74%,-11.8%,2.09%
CN(CCO)C(=O)c1cn2cc(-c3cccs3)n(CC3CC3)c(=O)c2n1,-5.43%,0.245%,-0.492%,-4.94%,-1.03%
NC(=O)CN1C(=O)[C@@H]2CN(C(=O)c3cccs3)CCN2C1=O,-1.85%,-2.12%,-3.44%,-9.15%,0.043%
Cn1c(=O)sc2cc(NS(=O)(=O)c3ccc4c(c3)n(C)c(=O)n4C)ccc21,8.29%,0%,4.4%,-0.919%,-2.08%
CC(C)NC(=O)NC[C@H]1O[C@@H](CO)[C@@H](O)[C@H]1N(C)CCN(C)C,-1.6%,-4.01%,0.69%,-8.83%,-3.88%
O=C(CCc1nnc2n(CCc3ccccc3)c(=O)c3ccccc3n12)N1CCN(C2CCCCC2)CC1,-12.8%,0.903%,-34.7%,-21.5%,-8%
O=C(CCn1ccc2cc(S(=O)(=O)N3CCCCC3)ccc21)NC1CCCC1,-2.42%,0.665%,-2.75%,-4.56%,0.459%
C=CCNc1ncnc2ccc(Br)cc12,-10.2%,5.77%,-2.14%,-5.3%,7.58%
CCc1cc2c(cc3n2CC(C)(C(=O)NC2CCC(C)CC2)N(CCN2CCOCC2)C3=O)s1 (stereo not given),3.88%,3.01%,1.41%,-7.12%,0.824%
Cc1cn2nnc(C(=O)NCc3ccc(C(C)C)cc3)c2c(=O)[nH]1,-11.8%,-8.81%,-7.24%,-20.3%,-1.55%
O=S(=O)(c1ccc(F)cc1)N1CCC(c2noc(C3CC3)n2)C1 (stereo not given),-0.197%,-0.543%,3.13%,-6.02%,1.51%
COc1ccccc1CNC(=O)C1(C)Cn2c(cc3ccccc32)C(=O)N1Cc1ccccc1OC (stereo not given),2.21%,4.83%,1.66%,4.78%,-1.13%
O=C(Cc1ccccn1)N1CCC2(CC1)CCN(Cc1cccs1)c1ccccc1O2,-12.6%,-12.8%,-12.3%,-18.6%,-19.7%
Cc1ccc(S(=O)(=O)c2nnn3c2nc(NCc2ccccc2)c2ccccc23)cc1C,0.791%,7.06%,8.37%,6.06%,2.27%
CCOC(CN1CCN(CC(C)C(=O)c2ccccc2)CC1)c1ccccc1 (stereo not given),-1.33%,-12.9%,-9.47%,-20.4%,-14.7%
CC(=O)Nc1c2n(c3ccc(F)cc13)CC(C)(C(=O)NC1CCCC1)N(CCCOC(C)C)C2=O (stereo not given),3.48%,2.34%,5.88%,2.98%,-2.85%
CCCCN1C(=O)c2cc(C(=O)NCc3ccc(OCC)cc3)nn2CC1(C)C(=O)NC1CCCC1 (stereo not given),2.51%,5.18%,-2.5%,-1.55%,0.561%
